# Measurements published in the supplement of paper PMC8728848.
# This is one part of the list.
# B1: CFEM-PPm (Pichia pastoris), F2QPV1 (protein)
# chain: AVATPPACLLACAAEVVKESSDCDALNNIQCICENEGSAIHACLESTCPDGLSSTALQSFEDVCE
# Key:
# Experiment in all cases: glycan array binding signal (z-score within array); higher = stronger binding
# Settings in all cases: glycan notation: IUPAC condensed, linker removed
# [1] = molecular target: Fuc(a1-3)[Gal3S(b1-4)]GlcNAc
# Outline: (§1)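 Glycan array data were curated from 3228 arrays in the Consortium for Functional Glycomics database and kept only where the protein sequence was available. Glycan names were converted to IUPAC-condensed notation, and columns mapping to the same glycan were averaged. The binding signal is a within-array Z-score, averaged across arrays of the same protein sequence at different concentrations or buffers and across linkers. Negative Z-scores can be read as non-binding.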
# [2] = molecular target: Fuc(a1-3)[Gal3S(b1-4)]GlcNAc6S
# Outline: as §1
# [3] = molecular target: Fuc(a1-3)[GalNAc(b1-4)]GlcNAc
# Outline: as §1
# [4] = molecular target: Fuc(a1-3)[GalNAc(b1-4)]GlcNAc6S
# Outline: as §1
# Fuc(a1-4)GlcNAc = molecular target: Fuc(a1-4)GlcNAc
# Outline: as §1
# Fuc(b1-3)GlcNAc = molecular target: Fuc(b1-3)GlcNAc
# Outline: as §1
# Gal(a1-2)Gal = molecular target: Gal(a1-2)Gal
# Outline: as §1
# Gal(a1-3)Gal = molecular target: Gal(a1-3)Gal
# Outline: as §1
# Gal(a1-3)Gal(b1-3)GlcNAc = molecular target: Gal(a1-3)Gal(b1-3)GlcNAc
# Outline: as §1
# [5] = molecular target: Gal(a1-3)Gal(b1-3)GlcNAc(b1-2)Man
# Outline: as §1
# [6] = molecular target: Gal(a1-3)Gal(b1-3)GlcNAc(b1-2)Man(a1-3)[Gal(a1-3)Gal(b1-3)GlcNAc(b1-2)Man(a1-6)]Man(b1-4)GlcNAc(b1-4)GlcNAc
# Outline: as §1
# [7] = molecular target: Gal(a1-3)Gal(b1-3)GlcNAc(b1-3)GalNAc
# Outline: as §1
# [8] = molecular target: Gal(a1-3)Gal(b1-3)GlcNAc(b1-6)GalNAc
# Outline: as §1
# [9] = molecular target: Gal(a1-3)Gal(b1-3)[Fuc(a1-4)]GlcNAc(b1-2)Man(a1-3)[Gal(a1-3)Gal(b1-3)[Fuc(a1-4)]GlcNAc(b1-2)Man(a1-6)]Man(b1-4)GlcNAc(b1-4)GlcNAc
# Outline: as §1
# Gal(a1-3)Gal(b1-4)Glc = molecular target: Gal(a1-3)Gal(b1-4)Glc
# Outline: as §1
# Gal(a1-3)Gal(b1-4)GlcNAc = molecular target: Gal(a1-3)Gal(b1-4)GlcNAc
# Outline: as §1
# [10] = molecular target: Gal(a1-3)Gal(b1-4)GlcNAc(b1-2)Man
# Outline: as §1
# [11] = molecular target: Gal(a1-3)Gal(b1-4)GlcNAc(b1-2)Man(a1-3)[Gal(a1-3)Gal(b1-4)GlcNAc(b1-2)Man(a1-6)]Man(b1-4)GlcNAc(b1-4)GlcNAc
# Outline: as §1
# [12] = molecular target: Gal(a1-3)Gal(b1-4)GlcNAc(b1-3)GalNAc
# Outline: as §1
# [13] = molecular target: Gal(a1-3)Gal(b1-4)GlcNAc(b1-6)GalNAc
# Outline: as §1
# [14] = molecular target: Gal(a1-3)Gal(b1-4)[Fuc(a1-3)]GlcNAc
# Outline: as §1
# [15] = molecular target: Gal(a1-3)Gal(b1-4)[Fuc(a1-3)]GlcNAc(b1-2)Man(a1-3)[Gal(a1-3)Gal(b1-4)[Fuc(a1-3)]GlcNAc(b1-2)Man(a1-6)]Man(b1-4)GlcNAc(b1-4)GlcNAc
# Outline: as §1
# Gal(a1-3)GalNAc = molecular target: Gal(a1-3)GalNAc
# Outline: as §1
# [16] = molecular target: Gal(a1-3)[Gal(a1-4)]Gal(b1-4)GlcNAc
# Outline: as §1
# [17] = molecular target: Gal(a1-4)Gal(b1-3)GlcNAc(b1-2)Man(a1-3)[Gal(a1-4)Gal(b1-3)GlcNAc(b1-2)Man(a1-6)]Man(b1-4)GlcNAc(b1-4)GlcNAc
# Outline: as §1
# Gal(a1-4)Gal(b1-4)Glc = molecular target: Gal(a1-4)Gal(b1-4)Glc
# Outline: as §1
# Gal(a1-4)Gal(b1-4)GlcNAc = molecular target: Gal(a1-4)Gal(b1-4)GlcNAc
# Outline: as §1
# [18] = molecular target: Gal(a1-4)Gal(b1-4)GlcNAc(b1-2)Man(a1-3)[Gal(a1-4)Gal(b1-4)GlcNAc(b1-2)Man(a1-6)]Man(b1-4)GlcNAc(b1-4)GlcNAc
# Outline: as §1
# [19] = molecular target: Gal(a1-4)Gal(b1-4)GlcNAc(b1-3)Gal(b1-4)Glc
# Outline: as §1
# Gal(a1-4)GlcNAc = molecular target: Gal(a1-4)GlcNAc
# Outline: as §1
# Gal(a1-6)Glc = molecular target: Gal(a1-6)Glc
# Outline: as §1
# Gal(b1-2)Gal = molecular target: Gal(b1-2)Gal
# Outline: as §1
# Gal(b1-3)Gal = molecular target: Gal(b1-3)Gal
# Outline: as §1
# Gal(b1-3)Gal(b1-4)GlcNAc = molecular target: Gal(b1-3)Gal(b1-4)GlcNAc
# Outline: as §1
# Gal(b1-3)GalNAc = molecular target: Gal(b1-3)GalNAc
# Outline: as §1
# [20] = molecular target: Gal(b1-3)GalNAc(a1-3)[Fuc(a1-2)]Gal(b1-4)Glc
# Outline: as §1
# [21] = molecular target: Gal(b1-3)GalNAc(a1-3)[Fuc(a1-2)]Gal(b1-4)GlcNAc
# Outline: as §1
# Gal(b1-3)GalNAc(b1-3)Gal = molecular target: Gal(b1-3)GalNAc(b1-3)Gal
# Outline: as §1
# [22] = molecular target: Gal(b1-3)GalNAc(b1-3)Gal(a1-4)Gal(b1-4)Glc
# Outline: as §1
# [23] = molecular target: Gal(b1-3)GalNAc(b1-4)Gal(b1-4)Glc
# Outline: as §1
# [24] = molecular target: Gal(b1-3)GalNAc(b1-4)[Neu5Ac(a2-3)]Gal(b1-4)Glc
# Outline: as §1
# Gal(b1-3)GlcNAc = molecular target: Gal(b1-3)GlcNAc
# Outline: as §1
# [25] = molecular target: Gal(b1-3)GlcNAc(a1-3)Gal(b1-4)GlcNAc
# Outline: as §1
# [26] = molecular target: Gal(b1-3)GlcNAc(a1-6)Gal(b1-4)GlcNAc
# Outline: as §1
# Gal(b1-3)GlcNAc(b1-2)Man = molecular target: Gal(b1-3)GlcNAc(b1-2)Man
# Outline: as §1
binder,measurement,setting,value
B1,glycan array binding signal (z-score),[1],0.069
same,glycan array binding signal (z-score),[2],0.06
same,glycan array binding signal (z-score),[3],0.055
same,glycan array binding signal (z-score),[4],-0.149
same,glycan array binding signal (z-score),Fuc(a1-4)GlcNAc,-0.28
same,glycan array binding signal (z-score),Fuc(b1-3)GlcNAc,-0.209
same,glycan array binding signal (z-score),Gal(a1-2)Gal,-0.447
same,glycan array binding signal (z-score),Gal(a1-3)Gal,-0.205
same,glycan array binding signal (z-score),Gal(a1-3)Gal(b1-3)GlcNAc,-0.035
same,glycan array binding signal (z-score),[5],-0.255
same,glycan array binding signal (z-score),[6],0.425
same,glycan array binding signal (z-score),[7],-0.358
same,glycan array binding signal (z-score),[8],-0.449
same,glycan array binding signal (z-score),[9],-0.006
same,glycan array binding signal (z-score),Gal(a1-3)Gal(b1-4)Glc,-0.394
same,glycan array binding signal (z-score),Gal(a1-3)Gal(b1-4)GlcNAc,-0.146
same,glycan array binding signal (z-score),[10],-0.269
same,glycan array binding signal (z-score),[11],-0.204
same,glycan array binding signal (z-score),[12],-0.284
same,glycan array binding signal (z-score),[13],-0.423
same,glycan array binding signal (z-score),[14],-0.203
same,glycan array binding signal (z-score),[15],-0.051
same,glycan array binding signal (z-score),Gal(a1-3)GalNAc,-0.238
same,glycan array binding signal (z-score),[16],-0.042
same,glycan array binding signal (z-score),[17],-0.319
same,glycan array binding signal (z-score),Gal(a1-4)Gal(b1-4)Glc,0.197
same,glycan array binding signal (z-score),Gal(a1-4)Gal(b1-4)GlcNAc,0.007
same,glycan array binding signal (z-score),[18],-0.132
same,glycan array binding signal (z-score),[19],-0.44
same,glycan array binding signal (z-score),Gal(a1-4)GlcNAc,0.31
same,glycan array binding signal (z-score),Gal(a1-6)Glc,-0.096
same,glycan array binding signal (z-score),Gal(b1-2)Gal,-0.182
same,glycan array binding signal (z-score),Gal(b1-3)Gal,5.41
same,glycan array binding signal (z-score),Gal(b1-3)Gal(b1-4)GlcNAc,6.22
same,glycan array binding signal (z-score),Gal(b1-3)GalNAc,3.57
same,glycan array binding signal (z-score),[20],0.271
same,glycan array binding signal (z-score),[21],0.224
same,glycan array binding signal (z-score),Gal(b1-3)GalNAc(b1-3)Gal,5.7
same,glycan array binding signal (z-score),[22],0.31
same,glycan array binding signal (z-score),[23],14.7
same,glycan array binding signal (z-score),[24],1.41
same,glycan array binding signal (z-score),Gal(b1-3)GlcNAc,-0.226
same,glycan array binding signal (z-score),[25],1.35
same,glycan array binding signal (z-score),[26],0.053
same,glycan array binding signal (z-score),Gal(b1-3)GlcNAc(b1-2)Man,0.152
